Measurements reported in patent US20240131045A1, “METHODS FOR TREATMENT OF VIRAL INFECTIONS” (priority 2022, published 2024).

System: SARS-CoV-2
Assay: Efficacy in SARS-CoV-2-infected African green monkeys (AGM)
Details: oral 60 mg/kg QD or 120 mg/kg QD, as early as 2 days of oral dosing

How did the “SARS-CoV-2 levels in the bronchioalveolar lavage fluid” value turn out when `CC(C)C(=O)OC[C@H]1O[C@@](C#N)(c2ccc3c(N)ncnn23)[C@H](OC(=O)C(C)C)[C@@H]1OC(=O)C(C)C` [Compound 10] was run?
Its value is “significantly reduced”.
